The structures appear in SMILES notation. Whole data set: some 2,900 compounds, median “NF-kB SEAP reporter activity, fold change vs agonist alone” near 0.99, cut for the highest 2% near 2.6. This is one part of the list.

These results are taken from the supplement of paper PMC10037445.

The subject of test [1] is RAW-Dual. The test is described as follows: NF-kB SEAP reporter activity, fold change vs agonist alone; cytotoxicity flag (confluency mask): not cytotoxic; higher = enhanced NF-kB activity. In outline: (§1)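 Library stock was pin-tooled at 50 nL into 384-well plates of RAW-Dual macrophages (50,000 cells/well, DMEM), followed 1 h later by a PRR agonist, and the cells were kept at 37 °C, 5% CO2. Supernatant collected after 20 hours was read for IRF by QuantiLuc luminescence and for NF-κB by QuantiBlue absorbance at 620 nm. Reporter activity is fold change over agonist-alone wells, and a well counted as cytotoxic when its IncuCyte confluency was below 70% of agonist controls in both mask sets.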

Test [2] deals with RAW-Dual. As to the kind of experiment: NF-kB SEAP reporter activity, fold change vs agonist alone; cytotoxicity flag (confluency mask): cytotoxic (confluency <70% of control); higher = enhanced NF-kB activity. The essentials: as §1
Test [3] deals with RAW-Dual. As to the kind of experiment: NF-kB SEAP reporter activity, fold change vs agonist alone; higher = enhanced NF-kB activity. As to conditions: library stock concentration (final ~1000-fold dilution): 10 mM. In outline:
as §1

[4] abbreviates: agonist: ODN 1826 (TLR9) 0.5 ug/mL.
Where [5] appears, read: agonist: Pam2CSK4 (TLR2/6) 0.1 ug/mL.
The mark [6] stands for this setting: agonist: Pam3CSK4 (TLR2/1) 0.1 ug/mL.
The mark [7] stands for this setting: cytotoxicity flag (confluency mask): not cytotoxic, agonist: Imiquimod (TLR7) […].
Setting [8] is: cytotoxicity flag (confluency mask): not cytotoxic, agonist: MPLA (TLR4) […].

As for `CC(=O)C1CCC2C3CCC4=CC(=O)CCC4(C)C3CCC12C` (configuration not stated) (library stock concentration (final ~1000-fold dilution): 10 mM), the “NF-kB SEAP reporter activity” value was 0.981 in test [1] (agonist: LPS (TLR4) 0.1 ug/mL), 1.06 in test [1] (setting [4]), 1.38 in test [1] (setting [5]) and 1.51 in test [1] (setting [6]).

With `Cc1[nH]c(/C=C2\C(=O)Nc3ccc(S(=O)(=O)Cc4c(Cl)cccc4Cl)cc32)c(C)c1C(=O)N1CCCC1CN1CCCC1` (configuration not stated) (library stock concentration (final ~1000-fold dilution): 10 mM), the “NF-kB SEAP reporter activity” value in test [2] (agonist: LPS (TLR4) 0.1 ug/mL) worked out at 0.658; in test [2] (setting [4]) it was 1.39; in test [2] (setting [5]) it was 0.551; in test [2] (setting [6]), 0.886.

For the molecule `Cc1[nH]c(/C=C2\C(=O)Nc3ccc(S(=O)(=O)Cc4c(Cl)cccc4Cl)cc32)c(C)c1C(=O)N1CCCC1CN1CCCC1` (configuration not stated), the “NF-kB SEAP reporter activity” value stood at 2.04 in test [3] (cytotoxicity flag (confluency mask): cytotoxic (confluency <70% of control), agonist: Imiquimod (TLR7) […]) and 1.3 in test [3] (cytotoxicity flag (confluency mask): cytotoxic (confluency <70% of control), agonist: MPLA (TLR4) […]).

Take `COCC(NC(=O)c1cnc(C)s1)C(=O)NC(COC)C(=O)NC(Cc1ccccc1)C(=O)C1(C)CO1` (configuration not stated) (library stock concentration (final ~1000-fold dilution): 10 mM): the “NF-kB SEAP reporter activity” value in test [1] (agonist: LPS (TLR4) 0.1 ug/mL) came to 0.377; in test [1] (setting [4]), 1.25; in test [1] (setting [5]) it was 0.279; in test [1] (setting [6]), 0.692.

`COCC(NC(=O)c1cnc(C)s1)C(=O)NC(COC)C(=O)NC(Cc1ccccc1)C(=O)C1(C)CO1` (configuration not stated): the “NF-kB SEAP reporter activity” value stood at 2.34 in test [3] (setting [7]) and 1.21 in test [3] (setting [8]).

`Cc1cn(C2CC(N=[N+]=[N-])C(CO)O2)c(=O)[nH]c1=O` (configuration not stated) (library stock concentration (final ~1000-fold dilution): 10 mM): the “NF-kB SEAP reporter activity” value in test [1] (agonist: LPS (TLR4) 0.1 ug/mL) was determined as 0.99; in test [1] (setting [4]), 1.04; in test [1] (setting [5]), 1.11; in test [1] (setting [6]), 1.15.

For the molecule `Cc1cn(C2CC(N=[N+]=[N-])C(CO)O2)c(=O)[nH]c1=O` (configuration not stated), the “NF-kB SEAP reporter activity” value in test [3] (setting [7]) amounted to 1.07; in test [3] (setting [8]), 1.1.

For the molecule `OCc1ccc(-c2ccc(-c3ccc(CO)s3)o2)s1` (library stock concentration (final ~1000-fold dilution): 10 mM), the “NF-kB SEAP reporter activity” value was determined as 1.13 in test [1] (agonist: LPS (TLR4) 0.1 ug/mL), 0.961 in test [1] (setting [4]), 0.904 in test [1] (setting [5]) and 1 in test [1] (setting [6]).

As to `OCc1ccc(-c2ccc(-c3ccc(CO)s3)o2)s1`, the “NF-kB SEAP reporter activity” value turned out to be 1.33 in test [3] (setting [7]) and 1.12 in test [3] (setting [8]).

Take `O=c1c(-c2ccc(O)cc2)coc2cc(O)cc(O)c12`: the “NF-kB SEAP reporter activity” value in test [3] (setting [7]) is 1.7; in test [3] (setting [8]), 1.64.

Turning to `O=c1c(-c2ccc(O)cc2)coc2cc(O)cc(O)c12` (library stock concentration (final ~1000-fold dilution): 10 mM), the “NF-kB SEAP reporter activity” value in test [1] (agonist: LPS (TLR4) 0.1 ug/mL) was found to be 1.59; in test [1] (setting [4]), 1.6; in test [1] (setting [5]) it was 1.15; in test [1] (setting [6]) it was 1.26.

In the case of `Nc1cc(O)nc(N)n1`, the “NF-kB SEAP reporter activity” value is 1.09 in test [3] (setting [7]) and 0.975 in test [3] (setting [8]).

On to `Nc1cc(O)nc(N)n1` (library stock concentration (final ~1000-fold dilution): 10 mM), for which the “NF-kB SEAP reporter activity” value in test [1] (agonist: LPS (TLR4) 0.1 ug/mL) is 0.917; in test [1] (setting [4]), 1.02; in test [1] (setting [5]), 0.869; in test [1] (setting [6]), 1.1.

Take `CCCCCCCCCCCCCC(=S)NCCCCC(NC(=O)OCc1ccccc1)C(=O)Nc1ccccc1` (configuration not stated) (library stock concentration (final ~1000-fold dilution): 10 mM): the “NF-kB SEAP reporter activity” value was determined as 0.952 in test [1] (agonist: LPS (TLR4) 0.1 ug/mL), 0.68 in test [1] (setting [4]), 0.764 in test [1] (setting [5]) and 0.752 in test [1] (setting [6]).

Regarding `CCCCCCCCCCCCCC(=S)NCCCCC(NC(=O)OCc1ccccc1)C(=O)Nc1ccccc1` (configuration not stated), the “NF-kB SEAP reporter activity” value turned out to be 1.23 in test [3] (setting [7]) and 0.867 in test [3] (setting [8]).

Turning to `Clc1cc2c(NC3CCCC3)nnc(-c3ccncc3)c2cc1Cl` (library stock concentration (final ~1000-fold dilution): 10 mM), the “NF-kB SEAP reporter activity” value in test [1] (agonist: LPS (TLR4) 0.1 ug/mL) is 1.41; in test [1] (setting [4]), 0.913; in test [1] (setting [5]) it was 0.808; in test [1] (setting [6]), 0.717.

`Clc1cc2c(NC3CCCC3)nnc(-c3ccncc3)c2cc1Cl`: the “NF-kB SEAP reporter activity” value was determined as 0.878 in test [3] (setting [7]) and 1.02 in test [3] (setting [8]).
